Measurements published in PubChem BioAssay AID504832 (National Center for Advancing Translational Sciences (NCATS), 2011).
Among all 310,000 compounds or so, about 18,000 (5.8%) were called active. The shares of active, inactive and inconclusive entries below differ from those in the screen. The call rests on the fitted dose curve; in most records, active means well fitted inhibition curve with a large enough effect; inconclusive means small, poorly fitted or top-dose-only effect, or another doubt; inactive means no such curve, though single readings can be large or run the other way. No potency is given beside an inconclusive call; the fits are too rough.
Potency means the concentration at half of the fitted maximal effect; tags describe the fitted curve by direction and shape.

Assay: Primary qHTS for delayed death inhibitors of the malarial parasite plastid, 48 hour incubation
Settings: P. falciparum luciferase growth in erythrocytes; series mostly up to 28.7 µM
Procedure, shortened: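 Read-out is firefly luciferase luminescence from an integrated reporter in P. falciparum, so falling signal marks reduced parasite growth. Infected erythrocytes were at 2% hematocrit and 0.1% parasitemia (final) in Albumax-supplemented RPMI 1640.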
For CCOC(=O)C1=C(O)/C(=C/c2cc(C)n(-c3ccccc3)c2C)N=C1C, the Potency was active: 0.0657 µM. With O=C(NC(=S)Nc1ccccc1[N+](=O)[O-])c1ccco1 the Potency was “inactive”. With CC(C)n1cc(CN2CCC(C(=O)Nc3cccc(-c4cccc(Cl)c4)c3)CC2)cn1 the Potency was inconclusive [inhibitor, single point]. With O=C(c1ccccc1)c1coc2ccc(O)c(Cl)c12 the Potency was “inactive”. For O=C(CCn1nc(-c2ccc(Cl)cc2)ccc1=O)NCc1ccccn1, the Potency was “inactive”. With O=C(COC(=O)CNS(=O)(=O)c1ccc(Cl)cc1)NC1CCCCC1 the Potency was “inactive”. For CC(=O)Nc1cccc(C(=O)Nc2ccc(S(=O)(=O)NC3=NCCCCC3)cc2)c1, the Potency was inconclusive [inhibitor, single point]. In the case of COc1ccc(Cn2c(=O)[nH]c3cc(C(=O)N4CCN(c5ccccc5)CC4)ccc3c2=O)cc1, the Potency is reported as inconclusive [inhibitor, single point]. With CCc1ccc(Nc2nnc(SCC(=O)N(C)C3CCS(=O)(=O)C3)s2)cc1 (stereo not given) the Potency was active: 9.28 µM. For CCOC(=O)c1c(/N=C/c2cccc([N+](=O)[O-])c2O)sc2c1CCC2, the Potency was inconclusive [inhibitor, partial curve]. For COc1ccc(NC(=O)CSCC(=O)N(C)Cc2ccc3c(c2)OCCO3)cc1, the Potency was inconclusive [inhibitor, partial curve]. With O=C(N/N=C/C=C/c1ccccc1)c1ccncc1 the Potency was “inactive”. For Cc1c(Br)c([N+](=O)[O-])nn1CC(=O)N1CCN(C23CC4CC(CC(C4)C2)C3)CC1, the Potency was inconclusive [inhibitor, partial curve]. For CCCCNc1ccc2c3c(cccc13)C(=O)N(CCCC)C2=O, the Potency was inconclusive [inhibitor, partial curve, poor fit]. With CCC(C)NC(=O)CCC(=O)Nc1ccc2nc(N3CC(C)CC(C)C3)cc(C)c2c1 (stereo not given) the Potency was active: 9.28 µM. For COc1ccccc1/C=C/C(=O)OC(C)CN1CCCCC1 (stereo not given), the Potency was inconclusive [inhibitor, single point]. For COc1cc(OC)cc(C(=O)N[C@H](C(=O)Nc2nc(-c3cc(OC)ccc3OC)cs2)C(C)C)c1, the Potency was “inactive”. For COC(=O)C1=C(C)N=C2SCCC(=O)N2C1c1cc(Br)ccc1OC (stereo not given), the Potency was inconclusive [inhibitor, partial curve]. In the case of COc1ccc(N(C(=O)c2ccc(Br)o2)C2C=CS(=O)(=O)C2)c(OC)c1 (stereo not given), the Potency is reported as inconclusive [inhibitor, partial curve, poor fit]. With COc1ccc(N(C)C(=O)C2CCN(S(=O)(=O)c3cccc4nsnc34)CC2)cc1 the Potency was inconclusive [inhibitor, single point].
